Assay results published in the RNAGym collection of RNA variant scans (doi:10.1101/gad.245936.114).
Variants at the floor of the assay are shown more often than the library holds them.

B1: tRNA (parent)
chain: CUCUCGGUAGCCAAGUUGGUUUAAGGCGCAAGACUUUAAUUUAUCACUACGAAAUCUUGAGAUCGGGCGUUCGACUCGCCCCCGGGAGAUUUUUUCCUCGAGCAA

Variants of: B1
Test: nonsense suppression (GFP-seq) (ratio to wild type); higher = more function; SUP4oc tRNA, yeast GFP reporter sort-seq
How it was run: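 Nonsense suppression (GFPSEQ) is the median GFP/RFP ratio of each sorting bin, weighted by the variant's estimated share of cells in that bin and expressed relative to the unmutated parent tRNA. Yeast strains carried genome-integrated variants of an ochre-suppressor tRNA from a library with ~3% random mutations, plus a galactose-driven GFP ochre reporter and RFP, and were grown in raffinose/galactose medium containing 80 mg/L adenine. Cells were sorted into GFP/RFP bins, each bin was Illumina-sequenced (phred ≥30), and variants were kept only with ≥100 reads and ≥30 cells.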
For CUCUCGGUAGCCUAGUUGGUUUAAGGCGCAAGACGUUAAUUUAUCACUACGAAACCUUGAGAACGGACGUUCGACUCGCCCCCGAGAGAUUUUUUCCUCGAGCAA [A13U U35G U55C U63A G67A G85A], the nonsense suppression was ≤ 0.026.
With CUCUCGGUAGCCACGUUGGUUUAAGGCGCAAGUCGUUAAUUUAUCACUACGAAAUCUUGAGAUCGGCCGUUCGACUCGCCCCCGGGAGAUUUUUUCCUCGAGCAA [A14C A33U U35G G67C] the nonsense suppression was ≤ 0.026.
For CUCUCGGUAGCCACGUUGGUUUAAGGCGCAAGAUCUUAAUUUAUCACUACGAAAUCUUGAGAUCGGGCGUUCGACUCGCCCCCGGGAGAUUUUUUCCUCGAGCAA [A14C C34U U35C], the nonsense suppression was ≤ 0.026.
With CUCUCGGUAGCCUAGUUGGUUGAAGGCGCAAGACUUUAAUUUAUCACUACGAAAUCGUGAGAUCGGGCGUUGGACUCGCCCCCGGGAGAUUUUUUCCUCGAGCAA [A13U U22G U57G C72G] the nonsense suppression was ≤ 0.026.
For CUCUCGGUAGCCACGUUGGUUUAAGGCGCAAGACUUUAAUUUAUCACUACGAAGUCUUGAGAUCCGGCGUUCGACUCGUCCCCGGGAGAUUUUUUCCUCGAGCAA [A14C A54G G65C C79U], the nonsense suppression was ≤ 0.026.
In the case of CUCUCGGUAGCCUAGUUGGUUUAAGGCGCAAGACUUUAAUUUAUCACUACGAAAUCGUGAGAUCGGGCGUUCGACUCGCCCCCGGGGGAUUUUUUCCUCGAGCAA [A13U U57G A87G], the nonsense suppression is reported as ≤ 0.026.
Work on CUCUCGGUAGCCUAGUUGGUUUAAGGCGCAAGACUUUAAUUUAUCACUACGAAAUCUUGAGAUCGGACGUUCGACUCGCCCCCGGGAGAUUUUUUCCUCGAGCAA [A13U G67A] yielded a nonsense suppression of 0.0502.
In the case of CUCUCGGUAGCCACGUUGGUUUAAGGCGCAAGACUUUAAUUUAUCACUACGAAAUCUUGAGAUCGGGUGCUGGACUCGCCCCCGGGAGAUUUUUUCCUCGAGCAA [A14C C68U U70C C72G], the nonsense suppression is reported as ≤ 0.026.
In the case of CUCUCGGUAGCCUAGUUGGUAUAAGGCGCAAGACCUUAAUUUAUCACUACGAAAUCUUGAGAUCGGGCGUUCGACUCGCCCCCUGGAGAUUUUUUCCUCGAGCAA [A13U U21A U35C G84U], the nonsense suppression is reported as ≤ 0.026.
With CUCUCGGUAGCCUAGUUGGUUUAAGGCGCAAGACUUUAAUUUAUCACUACGAAAUCUAGAGAGCGGGCGUUCGACUCGCCCCCGGGAGAUUUUUUCCUCGAGCAA [A13U U58A U63G] the nonsense suppression was ≤ 0.026.
In the case of CUCUCGGUAGCCACGUUGGUUUACGGCGCAAGACUUUAAUUUAUCACUACGAAAUCUUGAGAUCGGGCGUUCGACUCGCCCCCGGGAGAUUUUUUCCUCGAGCAA [A14C A24C], the nonsense suppression is reported as ≤ 0.026.
With CUCUCGGUAGCCACGUUGGUUUAAGGCGCAAGACUUUAAUUUAUCACUACGAAAUCUUGAGAUCGGGCGUUCGACUCGCCCCCGGGAGAUUUUUUCCUCGAGCAA [A14C] the nonsense suppression was ≤ 0.026.
With CUCUCGGUAGCCACGUUGGUUUAAGGCGUAAGACUUUAAUUUAUCACUACGAAAUCUUGAGAUCGGGCGUUCGACUCGCCCCCGGGAGAUUUUUUCCUCGAGCAA [A14C C29U] the nonsense suppression was ≤ 0.026.
With CUCUCGGUAGCCUAGUUGGUUUAAGGCGCAAGACUUUAAUUUAUCACUACGAAAUCUUGAGAUCGGGCGUUCCACUCGCCCCCGGGAGAUUUUUUCCUCGAGCAA [A13U G73C] the nonsense suppression was ≤ 0.026.
In the case of CUCUCGGUAGCCACGUUGGUUUAAGGCGCAAGACUUUAAUUUAUCACUACGAAAUCUUGAGAUCGGGCGUUCGAAUCGCCCCCGGGAGAUUUUUUCCUCGAGCAA [A14C C75A], the nonsense suppression is reported as ≤ 0.026.
With CUCUCGGUAGCCACGUUGUUUUAAGGCGCAAGACUUUAAUUUAUCACUACGAAAUCUUGAGAUCGGGCGUUCGACUCGCCCCCGGGAGAUUUUUUCCUCGAGCAA [A14C G19U] the nonsense suppression was ≤ 0.026.
For CUCUCGGUAGCCACGUUGGUUUAAGGGGCAAGACUUUAAUUUAUCACUACGAAAUCUUGAGAUCAGGCGUUCGACUCGCCCCCGGGAGAUUUUUUCCUCGAGCAA [A14C C27G G65A], the nonsense suppression was ≤ 0.026.
For CUCUCGGUAGCCUAGUUGGUUUAAGGCGCAAGACUUUAAUUUAUCACUACGAAAUCUUGAGAUCCGGCGUUCGACUCGCCCCCGGUAGAUUUUUUCCUCGAGCAA [A13U G65C G86U], the nonsense suppression was ≤ 0.026.
For CUCUCGGUAGCCUAGUUGGUUUAAGGCGCAAGACUUUAAUUUAUCACUACGAAAUCAUGAGAUCGGGCGUUCGACUCGCCCCCGGGAGAUUUUUUCCUCGAGCAA [A13U U57A], the nonsense suppression was 0.0273.
With CUCUCGGUAGCCACGUUAGUUUAAGGCUCAAGACUUUAAUUUAUCACUACGAAAUCUUGAGAUCGGGCGUUCGACUCGCCCCCGGGACAUUUUUUCCUCGAGCAA [A14C G18A G28U G88C] the nonsense suppression was ≤ 0.026.
In the case of CUCUCGGUAGCCACGUUGCUUUAAGGCGCUAGACUUUAAUUUAUCACUACGAAAUCUUGAGAUCGGGCGGUCGACUCGCCCCCGGGAGAUUUUUUCCUCGAGCAA [A14C G19C A30U U70G], the nonsense suppression is reported as ≤ 0.026.
With CUCUCGGUAGCCACGUUGGUUUAAGGCGCAAGACUUUAAUUUAUCACUACGAAAUCUUGAGAUCGGGCGUUCGACUCGCCCACGGGAGAUUUUUUCCUCGAGCAA [A14C C82A] the nonsense suppression was ≤ 0.026.
For CUCUCGGUAGCCUAGUGGGUUUAAGGCGUAAGACUUUAAUUUAUCACUACGAAAUCUUGAGAUCGGGCGUUCGACUCGCCCCCUGGAGAUUUUUUCCUCGAGCAA [A13U U17G C29U G84U], the nonsense suppression was ≤ 0.026.
In the case of CUCUCGGUAGCCACGUUGGUUUAAGGCGCAAGUCUUUAAUUUAUCACUACGAAAUCUUGAGAUCGGGCGUUCGUCUCGCCCCCGGGAGAUUUUUUCCUCGAGCAA [A14C A33U A74U], the nonsense suppression is reported as ≤ 0.026.
For CUCUCGGUAGCCUAGUUGGUUUAAGGCGCAAGACUUUAAUUUAUCACUACGAAAUCUUGAGAUCGGGCGUUCGACUCCCCCCCGGGAGAUUUUUUCCUCGAGCAA [A13U G78C], the nonsense suppression was 0.0621.
With CUCUCGGUAGCCACGUUGGUUUAAGGCGCAAGACUUUAAUUUAUCACUACGAAAUCUUGAGAUCGGGCGUUCGACUCGACCCCGGGAGAUUUUUUCCUCGAGCAA [A14C C79A] the nonsense suppression was ≤ 0.026.
In the case of CUCUCGGUAGCCUAGUUGGUUGAAGGCGCAAGACUUUAAUUUAUCACUACGAAAUCUUGAGAUCGGGCGUUCGACUCGCCCCCUGGAGAUUUUUUCCUCGAGCAA [A13U U22G G84U], the nonsense suppression is reported as ≤ 0.026.
